The record followed here is the supplement of paper PMC11876631.

Substitutions are numbered along the chain they refer to. Names and notes keep the numbering of the source. ± gives the standard deviation of the averaged measurements. Laboratory Escherichia coli strains with one amino-acid change in an essential protein, pooled on minimal glucose agar with carbenicillin or gentamicin at twice the control MIC (plus kanamycin and chloramphenicol for the plasmids), 48 h. Fold change of barcode share against drug-free plates; higher = less susceptible. Active = above 20 in both replicates (the paper's putatively resistant). '<' = one read or none on drug, '>' = one read or none on a drug-free plate. Shares are relative, so most strains fall below 1 when a few take over. Listed are strains with at least 15 reads on both drug-free plates, and hits; most hits rest on fewer reference reads. Replicate rank correlation about 0.5. Edits are read from barcodes.

This series has as its target Escherichia coli (laboratory strain). Briefly: barcode share on antibiotic plates over drug-free plates; higher = less susceptible. As for the experimental part: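 A pool of E. coli strains, each edited to carry one amino-acid change in an essential protein, was grown for 48 h on minimal glucose agar with or without antibiotic; strain barcodes were sequenced; mean of two replicates.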

Setting [1] is: antibiotic: carbenicillin, 2× MIC (3.1 µg/mL).
Where [2] appears, read: antibiotic: gentamicin, 2× MIC (MIC 0.45 µg/mL).

B1: metB V211W (protein)
chain: MTRKQATIAVRSGLNDDEQYGCVVPPIHLSSTYNFTGFNEPRAHDYSRRGNPTRDVVQRALAELEGGAGAVLTNTGMSAIHLVTTVFLKPGDLLVAPHDCYGGSYRLFDSLAKRGCYRVLFVDQGDEQALRAALAEKPKLVLVESPSNPLLRVVDIAKICHLAREVGAVSVVDNTFLSPALQNPLALGADLVLHSCTKYLNGHSDVVAGVWIAKDPDVVTELAWWANNIGVTGGAFDSYLLLRGLRTLVPRMELAQRNAQAIVKYLQTQPLVKKLYHPSLPENQGHEIAARQQKGFGAMLSFELDGDEQTLRRFLGGLSLFTLAESLGGVESLISHAATMTHAGMAPEARAAAGISETLLRISTGIEDGEDLIADLENGFRAANKG
Regarding B1, the “fold change of barcode share” value runs as follows: under setting [1], 0.402 ± 0.12; under setting [2], 0.00411 ± 0.0038.

B2: metB V24Q (protein)
chain: B1 chain with V24Q, W211V
For the protein B2, the “fold change of barcode share” value reads like this: under setting [1], 0.411 ± 0.23; under setting [2], 0.033 ± 0.018.

B3: metB I156Q (protein)
chain: B1 chain with I156Q, W211V
Regarding B3, under setting [1], the “fold change of barcode share” value turned out to be 0.324 ± 0.061.

B4: metB I80P (protein)
chain: B1 chain with I80P, W211V
Regarding B4, the “fold change of barcode share” value is, setting by setting: under setting [1], 0.866 ± 0.029; under setting [2], 0.0173 ± 0.003.

B5: metB V211P (protein)
chain: B1 chain with W211P
B5: the “fold change of barcode share” value reads like this: under setting [1], 1.43 ± 0.85; under setting [2], 0.0473 ± 0.016.

B6: metB I80Q (protein)
chain: B1 chain with I80Q, W211V
On to B6, for which the “fold change of barcode share” value reads like this: under setting [1], 0.487 ± 0.12; under setting [2], 0.0106 ± 0.0034.

B7: metB V24A (protein)
chain: B1 chain with V24A, W211V
For B7, the “fold change of barcode share” value is, setting by setting: under setting [1], 0.216 ± 0.054; under setting [2], under 0.0139.

B8: metB I80A (protein)
chain: B1 chain with I80A, W211V
B8: the “fold change of barcode share” value by setting is: under setting [1], 0.646 ± 0.26; under setting [2], 0.0098 ± 0.005.

B9: metB I80W (protein)
chain: B1 chain with I80W, W211V
In the case of B9, the “fold change of barcode share” value under setting [1] was determined as 0.639 ± 0.092 and the “fold change of barcode share” value under setting [2] worked out at 0.0185 ± 0.0055.

B10: metB V211D (protein)
chain: B1 chain with W211D
Take B10: the “fold change of barcode share” value was 0.896 ± 0.079 under setting [1] and 0.0387 ± 0.038 under setting [2].

B11: metB V211Q (protein)
chain: B1 chain with W211Q
Consider B11, for which the “fold change of barcode share” value was 0.50986 ± 6.4e-05 under setting [1] and 0.0111 ± 0.0033 under setting [2].

B12: metB I80D (protein)
chain: B1 chain with I80D, W211V
For B12, the “fold change of barcode share” value came to 0.772 ± 0.5 under setting [1] and 0.00905 ± 0.00054 under setting [2].

B13: aroD L78Q (protein)
chain: MKTVTVKDLVIGTGAPKIIVSLMAKDIASVKSEALAYREADFDILEWRVDHYADLSNVESVMAAAKILRETMPEKPLQFTFRSAKEGGEQAISTEAYIALNRAAIDSGLVDMIDLELFTGDDQVKETVAYAHAHDVKVVMSNHDFHKTPEAEEIIARLRKMQSFDADIPKIALMPQSTSDVLTLLAATLEMQEQYADRPIITMSMAKTGVISRLAGEVFGSAATFGAVKKASAPGQISVNDLRTVLTILHQA
For B13, the “fold change of barcode share” value reads like this: under setting [1], 0.41 ± 0.14; under setting [2], under 0.0117.
